In the supplement of paper PMC11417369:
± gives the standard deviation of the averaged measurements. This is one part of the list.

system: PfAP2-I AP2 domain 3 (GST-tagged); assay: gcPBM binding intensity (ln(normalized median fluorescence intensity)); higher = stronger DNA binding
In short: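 An Agilent 4 × 180k array carrying primer-extended double-stranded 36-bp intergenic genomic probes and negative controls received GST-tagged P. falciparum DNA-binding domains expressed in E. coli, about 25 μg on average, for 1 h. The binding buffer contained 1× PBS, 1% milk, 0.2 mg/ml BSA, 0.5% salmon testes DNA and 0.03% Triton X-100. Binding intensity is the top Masliner-normalised natural-log median intensity across replicate spots of either probe orientation, read after Alexa488 anti-GST antibody staining and a 488 nm scan.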

**Q.** With “TTACTATATAATATGTGTACACAACATATAATATAT [XGTACX_site1383]” as the sequence, how does the “gcPBM binding intensity (ln)” value read?
**A.** 8.07 ± 0.41

**Q.** How did the “gcPBM binding intensity (ln)” value turn out when “GTTGTGTAATTCGTAACACACATAAAATATAAATAA [CACACA_site7799]” was run?
**A.** 7.72 ± 0.59

**Q.** How did the “gcPBM binding intensity (ln)” value turn out when “AAAAAAAAAAAAAAAAAAAAAAAAATATATATATAT [CACACA_negctrl_site436]” was run?
**A.** 9.67 ± 0.13

**Q.** Which “gcPBM binding intensity (ln)” value does the source give for “TTTTTTTTTTGATGTTGTACTTATATACTATATAAT [XGTACX_site2778]” here?
**A.** 7.92 ± 0.45

**Q.** Which “gcPBM binding intensity (ln)” value does the source give for “ATATATATATATTGCACACATATAAATATATATATT [CACACA_site807]” here?
**A.** 10.4 ± 0.42

**Q.** With CAACCTTTTTTGTTGGTGCATAATTTTTTTTTCTTT as the sequence, how does the “gcPBM binding intensity (ln)” value read?
**A.** 10.9 ± 0.52

**Q.** How did the “gcPBM binding intensity (ln)” value turn out when “AATATATAGCTAAAAACACACAAATATATACTCATA [CACACA_site5904]” was run?
**A.** 7.54 ± 0.48

**Q.** How did the “gcPBM binding intensity (ln)” value turn out when “TTTATAAAATTTATTGCACACAATTATTTTATAATT [CACACA_site2489]” was run?
**A.** 9.89 ± 0.49

**Q.** With “ATACATTTTTTTTTCACACATATATATATATTTAAT [CACACA_site5995]” as the sequence, how does the “gcPBM binding intensity (ln)” value read?
**A.** 8.38 ± 0.6

**Q.** “CTCACGTAGCTTGATGCATGCAAACTTGAGTAAAAG [TGCATGCA_site409]” was tested. Which “gcPBM binding intensity (ln)” value did it give?
**A.** 7.78 ± 0.81

**Q.** How did the “gcPBM binding intensity (ln)” value turn out when “CATATACTCGGACACACACACACACCGACAAAAAAA [CACACA_site4433]” was run?
**A.** 8.25 ± 0.28

**Q.** For “TATCATAAAATATGTAGTACGTATATATATAAAAAT [XGTACX_site5455]”, which “gcPBM binding intensity (ln)” value is on record?
**A.** 7.96 ± 0.5

**Q.** For “TTTATAGTTTTTAATAGTACACATATTTTTAAGTAT [XGTACX_site5498]”, which “gcPBM binding intensity (ln)” value is on record?
**A.** 7.89 ± 0.2

**Q.** How did the “gcPBM binding intensity (ln)” value turn out when “TTTTGTGGAGGATGGTGTACGGTATTGTATTATTAC [XGTACX_site1942]” was run?
**A.** 8.17 ± 0.41

**Q.** “TAAACAGACATACATACACACATACATACAGACATA [CACACA_site6997]” was tested. Which “gcPBM binding intensity (ln)” value did it give?
**A.** 7.74 ± 0.26

**Q.** For “ATAGTTTTATATAAATGTACAAATGATTTCAAATAG [XGTACX_site8236]”, which “gcPBM binding intensity (ln)” value is on record?
**A.** 7.89 ± 0.56

**Q.** Which “gcPBM binding intensity (ln)” value does the source give for “AACATGTATATATTATGTACATATGTTAAAATGATA [XGTACX_site6217]” here?
**A.** 7.95 ± 0.4

**Q.** “TAGCGGCGGTATCATGCACACGTATATATTGTAACA [CACACA_site8453]” was tested. Which “gcPBM binding intensity (ln)” value did it give?
**A.** 8.41 ± 0.54

**Q.** With “GAGTTAATTTTTTCGTGTACTTGAAAATATTTTTTT [XGTACX_site6392]” as the sequence, how does the “gcPBM binding intensity (ln)” value read?
**A.** 7.96 ± 0.49

**Q.** How did the “gcPBM binding intensity (ln)” value turn out when “TTACCTTTTTCTAATGGTACACATAAAATATCATTT [XGTACX_site6825]” was run?
**A.** 7.79 ± 0.36

**Q.** For “TTTTCTTACACGAATTTTAAATTCAATATTAAACAT [CACACA_negctrl_site286]”, which “gcPBM binding intensity (ln)” value is on record?
**A.** 8.03 ± 0.44

**Q.** With “GTGGAAATATAACACATTTTTTTTAATAATTATATT [TGCATGCA_negctrl_site522]” as the sequence, how does the “gcPBM binding intensity (ln)” value read?
**A.** 7.76 ± 0.52

**Q.** For “TTAGCAACTATTACTACACACATTTGTATATAACTT [CACACA_site6850]”, which “gcPBM binding intensity (ln)” value is on record?
**A.** 7.96 ± 0.68

**Q.** How did the “gcPBM binding intensity (ln)” value turn out when “TAAATTAATACCTATGCACACATTTTTTTTTTTAAA [CACACA_site1238]” was run?
**A.** 8.32 ± 0.47

**Q.** “TTTATTATAATATGTTGTACAAGACGTTTCAGTATA [XGTACX_site4486]” was tested. Which “gcPBM binding intensity (ln)” value did it give?
**A.** 7.99 ± 0.23

**Q.** “AAATTATCTTAATAGGATGTTCAAGGAGAAAGATGA [CACACA_negctrl_site1032]” was tested. Which “gcPBM binding intensity (ln)” value did it give?
**A.** 7.72 ± 0.61

**Q.** For “CTTAAATTTTTAAATACACACATACACCCATACACA [CACACA_site4461]”, which “gcPBM binding intensity (ln)” value is on record?
**A.** 8.53 ± 0.22

**Q.** For “TTTTTTTTAAATATCACACACATATAATATATTCTA [CACACA_site3668]”, which “gcPBM binding intensity (ln)” value is on record?
**A.** 7.58 ± 0.54

**Q.** How did the “gcPBM binding intensity (ln)” value turn out when “AAACCCTATTCAATGCAATAATTTTATAATTTTTTT [TGCATGCA_negctrl_site434]” was run?
**A.** 7.78 ± 0.47

**Q.** How did the “gcPBM binding intensity (ln)” value turn out when “GCTTCATTTTAAACTTGTACTTATTTTTTGGTAAAT [XGTACX_site8879]” was run?
**A.** 8.28 ± 0.42

**Q.** Which “gcPBM binding intensity (ln)” value does the source give for “TAGTTACTTCTTATATAAAATATGTATATAAAAATA [GTGCAC_negctrl_site190]” here?
**A.** 7.57 ± 0.19

**Q.** “TCTCTCATTTATTTTTGTACTTAATCCAGCACGTTT [XGTACX_site1369]” was tested. Which “gcPBM binding intensity (ln)” value did it give?
**A.** 8.34 ± 0.68

**Q.** With “ACATATTAATTATAAAGTACATATATATATATATAT [XGTACX_site4540]” as the sequence, how does the “gcPBM binding intensity (ln)” value read?
**A.** 9.45 ± 0.6

**Q.** How did the “gcPBM binding intensity (ln)” value turn out when “TTGTTTGTTGTAACGTGTACAGATAAAAATAAAGGG [XGTACX_site375]” was run?
**A.** 8.62 ± 0.39

**Q.** For “TTCATATTATAGTGCACACAAAAATATATATATGGT [CACACA_site2855]”, which “gcPBM binding intensity (ln)” value is on record?
**A.** 11.3 ± 0.43

**Q.** For “TAATATCAATATAAAGTACACACTATAGTATGTATT [CACACA_site2280]”, which “gcPBM binding intensity (ln)” value is on record?
**A.** 7.7 ± 0.26

**Q.** Which “gcPBM binding intensity (ln)” value does the source give for “TATATATATATATATATACACACGTATATATATACA [CACACA_site4155]” here?
**A.** 9.54 ± 0.77

**Q.** For “ATATCTTTGCAAAGATGTACTTGTAAAAATATATGA [XGTACX_site768]”, which “gcPBM binding intensity (ln)” value is on record?
**A.** 8.09 ± 0.45

**Q.** With “GACCCACTTTTCTGCACACATAAAAAATATATAAAT [CACACA_site4483]” as the sequence, how does the “gcPBM binding intensity (ln)” value read?
**A.** 9.6 ± 0.15

**Q.** How did the “gcPBM binding intensity (ln)” value turn out when “TATAATAAAACTTTTACACACTTTAAAAAAAAAAAA [CACACA_site6392]” was run?
**A.** 7.86 ± 0.63

**Q.** For “TAAAAGTAAAGACATGCATGCATTGGTATCTTTTAC [TGCATGCA_site665]”, which “gcPBM binding intensity (ln)” value is on record?
**A.** 7.62 ± 0.86

**Q.** With “TTTATATTTAAATATATATGAGAAAACACAAAATAT [TGCATGCA_negctrl_site211]” as the sequence, how does the “gcPBM binding intensity (ln)” value read?
**A.** 8.04 ± 0.45

**Q.** For “TACATATTTATATACACACACACCCTAAAAATATAT [CACACA_site6861]”, which “gcPBM binding intensity (ln)” value is on record?
**A.** 8.13 ± 0.33

**Q.** Which “gcPBM binding intensity (ln)” value does the source give for “AAAAGAATTACTTTCACACATATATATCTGTAAATA [CACACA_site5798]” here?
**A.** 7.51 ± 0.65
